Assay results as given in the supplement of paper PMC9446081.
The campaign covered roughly 39,000 compounds. About 220 (0.56%) showed activity. Some of the results follow.

test system: Escherichia coli K-12 BW25113; assay: relative growth (OD600 normalised to plate interquartile mean) (fraction); higher = less growth inhibition, active = 0.2 or less; details: 50 µM; LB; incubation time: overnight (16-24 h)
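Further: static incubation at 37 °C against the wild-type strain, values averaged over two biological replicates.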

Row | Structure (SMILES) | relative growth
1 | Cc1noc(C)c1S(=O)(=O)Nc1ccc2c(c1)C(=O)N([C@@H](C)CO)C[C@H](C)[C@H](CN(C)C(=O)Nc1cccc3ccccc13)OCCCC[C@H](C)O2 | inactive: 0.991
2 | c1csc(CNc2ccc(NCc3cccs3)cc2)c1 | inactive: 0.996
3 | C[C@@H]1CCCCO[C@@H](CN(C)C(=O)Nc2ccc(C(F)(F)F)cc2)[C@H](C)CN([C@H](C)CO)C(=O)c2cc(NS(=O)(=O)c3cn(C)cn3)ccc2O1 | inactive: 0.924
4 | CO[C@@H]1CN(C)C(=O)c2cc(NC(=O)Nc3ccccc3F)ccc2OC[C@@H](C)N(CCC(F)(F)F)C[C@H]1C | inactive: 1.03
5 | CCS(=O)(=O)N1CC[C@]2(CC1)CN(CC1CCOCC1)[C@@H](CO)c1c2c2ccc(cc2n1C)OC | inactive: 0.995
6 | CC(=O)OC1CC2C(C)(C)C(=O)CCC2(C)C2CCC3(C)C(c4ccoc4)OC(=O)C4OC43C12C (configuration not stated) | inactive: 1.15
7 | COCC(=O)Nc1ccc2c(c1)C(=O)N(C)C[C@@H](OC)[C@H](C)CN(C(=O)Cc1cccnc1)[C@H](C)CO2 | inactive: 0.975
8 | C[C@@H]1CN([C@H](C)CO)C(=O)c2c(c3ccccc3n2C)-c2ccccc2CO[C@H]1CN(C)Cc1cccc(O)c1 | inactive: 0.928
9 | N[C@@H](C(=O)O)c1ccc(O)c(C(=O)O)c1 | inactive: 1.01
10 | C[C@@H]1CCCCO[C@@H](CN(C)C(=O)CCCN(C)C)[C@H](C)CN([C@@H](C)CO)C(=O)c2cc(NC(=O)Nc3cccc4ccccc34)ccc2O1 | inactive: 0.994
11 | C/C=C/C(=O)c1cc(Cl)ccc1O | inactive: 0.964
12 | Cc1noc(C)c1S(=O)(=O)N(C)C[C@H]1OCCCC[C@H](C)Oc2ccc(NC(=O)Nc3cccc4ccccc34)cc2C(=O)N([C@@H](C)CO)C[C@@H]1C | inactive: 1.04
13 | C[C@H]1CCCCO[C@H](CN(C)C(=O)c2ccccc2)[C@@H](C)CN([C@@H](C)CO)C(=O)c2cc(NC(=O)Cc3ccccc3)ccc2O1 | inactive: 0.996
14 | Cc1noc(C)c1NC(=O)N(C)C[C@@H]1Oc2ccc(NC(=O)Nc3ccc(C(F)(F)F)cc3)cc2CC(=O)N([C@@H](C)CO)C[C@@H]1C | inactive: 0.905
15 | CNC[C@@H]1Oc2ccc(NC(=O)Cn3cnnn3)cc2C(=O)N([C@H](C)CO)C[C@H]1C | inactive: 0.995
16 | C[C@@H]1CN([C@H](C)CO)C(=O)Cc2cc(N(C)C)ccc2O[C@@H]1CN(C)S(=O)(=O)c1ccc(Cl)cc1 | inactive: 0.997
17 | C[C@H]1CN([C@@H](C)CO)C(=O)c2c(c3ccccc3n2C)-c2ccccc2CO[C@H]1CN(C)Cc1cccc2c1OCCCO2 | inactive: 0.999
